Data from patent US20190309066A1, “COMBINATION THERAPY FOR THE TREATMENT OF SOLID AND HEMATOLOGICAL CANCERS” (Arch Oncology, Inc., priority 2017, published 2019).

Assays:
Jurkat cells = test: In vitro cell death assay (annexin V / 7-AAD); assay type: cell-based, human; conditions: 1 μg/ml soluble mAb, 24 hrs
Experimental: Induction of cell death by soluble anti-CD47 mAbs is measured in vitro (Manna et al. (2003) J. Immunol. […] (7): 3544-53, Kikuchi et al. Biochem Biophys Res. Commun. 315: 912-8, 2004), Pettersen et al. J. Immuno. 162: 7031-7040, 1999), Manna et al. Cancer Research, 64: 1026-1036, 2004). For the in vitro cell death assay, 1×10^5 transformed human T cells (Jurkat cells) were incubated with soluble humanized VLX4, VLX8, and VLX9 CD47 mAbs (1 μg/ml) for 24 hrs at 37° C. As cell death occurs, mitochondrial membrane potential is decreased, the inner leaflet of the cell membrane is inverted, exposing phosphatidylserines (PS), and propidium iodide (PI) or 7-aminoactinomycin D (7-AAD) is able to incorporate into nuclear DNA. In order to detect these cellular changes, cells were then stained with fluorescently labelled annexin V and PI or 7-aminoactinomycin D (7-AAD) (BD Biosciences) and the signal detected using an Accuri C6 flow cytometer (BD Biosciences). The increase in PS exposure is determined by measuring the percent increase in annexin V signal and the percent of dead cells by measuring the percent increase in PI or 7-AAD signal. Annexin V positive (annexin V+) or annexin V positive/7-AAD negative (annexin V^+/7-AAD^−) cells are observed in early stages of cell death and annexin V positive/7-AAD positive (annexin V^+/7-AAD^+) cells are dead cells. […]

[1] = test system: human red blood cells (hRBCs); test: Hemagglutination of washed hRBCs; assay type: cell-based; conditions: mAb concentrations 50 μg/ml down to 0.3 ng/ml or 0.3 pg/ml
Experimental: Hemagglutination of hRBCs was assessed following incubation of hRBCs with various concentrations of chimeric and humanized VLX4, VLX8, and VLX9 mAbs in vitro essentially as described by Kikuchi et al. Biochem Biophys Res. Commun (2004) 315:912-918. Blood was obtained from healthy donors, diluted (1:50) in PBS/1 mM EDTA/BSA and washed 3 times with PBS/EDTA/BSA. hRBCs were added to U-bottomed 96 well plates with equal volumes of the antibodies (75 μl of each) and incubated for 3 hrs at 37° C. and overnight at 4° C.

[2] = biological target: T1, human CD47 (OV10 hCD47 cells) (Homo sapiens, UniProt Q08722); test: Cell-based ELISA binding to OV10 hCD47 cells; conditions: Table 1, chimeric (xi) mAbs; apparent Kd
T1 construct: expressed in transfected cells; host or cells: OV10 human ovarian cancer cell line
T1 sequence (Q08722 19-323): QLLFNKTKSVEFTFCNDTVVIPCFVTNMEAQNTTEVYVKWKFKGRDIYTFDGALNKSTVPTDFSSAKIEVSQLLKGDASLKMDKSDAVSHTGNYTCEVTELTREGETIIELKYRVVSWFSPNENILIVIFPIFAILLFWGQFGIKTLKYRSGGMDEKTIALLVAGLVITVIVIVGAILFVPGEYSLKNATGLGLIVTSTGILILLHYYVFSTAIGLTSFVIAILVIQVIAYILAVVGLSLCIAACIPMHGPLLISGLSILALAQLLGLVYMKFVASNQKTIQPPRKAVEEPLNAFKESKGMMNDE
Experimental: The binding of chimeric (murine-human) and humanized antibodies of the present disclosure was determined by ELISA using OV10 cells transfected with human CD47 (OV10 hCD47) or using freshly isolated human red blood cells (hRBCs), which display CD47 on their surface (Kamel et al. (2010) Blood. Transfus. 8(4):260-266).
Binding activities of VLX4, VLX8, and VLX9 chimeric (xi) and humanized mAbs were determined using a cell-based ELISA assay with human OV10 hCD47cells expressing cell surface human CD47. OV10 hCD47 cells were grown in IMDM medium containing 10% heat inactivated fetal bovine serum (BioWest; S01520). One day before assay, 3×10^4 cells were plated in 96 well cell bind plates (Corning #3300, VWR #66025-626) and were 95-100% confluent at the time of assay. Cells were washed, various concentrations of purified antibodies added in IMDM and incubated at 37° C. for 1 hr in 95% O2/5% CO2. Cells were then washed with media and incubated for an additional hour at 37° C. with HRP labelled secondary anti-human antibody (Promega) diluted 1/2500 in media. […] Reactions were terminated by the addition of HCl to 0.7N, and absorbance at 450 nm determined using a Tecan model Infinite M200 plate reader. The apparent binding affinities of these clones to human OV10 hCD47 cells was determined by non-linear fit (Prism GraphPad software).

human CD47 on hRBCs = biological target: T2, human CD47 on hRBCs (Homo sapiens, UniProt Q08722); test: Flow cytometry binding to freshly isolated human red blood cells; conditions: Table 1, chimeric (xi) mAbs; read-out: Kd (pM) hRBC
T2 construct: freshly isolated human red blood cells (hRBCs), which display CD47 on their surface; endogenous in cells; host or cells: human red blood cells from blood of normal volunteers
T2 sequence (Q08722 19-323): as above
Experimental: Binding activities of chimeric and humanized VLX4, VLX8, and VLX9 mAbs to human CD47 on hRBCs were also determined using flow cytometry.

B1: VLX8 IgG1 N297Q (xi): chimeric (murine-human) anti-CD47 mAb, human IgG1-N297Q (antibody)
heavy: EVQLQQSGPELMKPGASVKISCKASGYSFTNYYIHWVNQSHGKSLEWIGYIDPLNGDTTYNQKFKGKATLTVDKSSSTAYMRLSSLTSADSAVYYCARGGKRAMDYWGQGTSVTVSS[letters of human IgG1 constant region with changes left out]
light: DIQMTQTTSSLSASLGDRVTISCRASQDISNYLNWYQQKPDGTVKLLIYYTSRLYSGVPSRFSGSGSGTDYSLTISNLEQEDIATYFCQQGNTLPWTFGGGTKLEIKRTVAAPSVFIFPPSDEQLKSGTASVVCLLNNFYPREAKVQWKVDNALQSGNSQESVTEQDSKDSTYSLSSTLTLSKADYEKHKVYACEVTHQGLSSPVTKSFNRGEC
PS exposure and cell death (annexin V+, annexin V+/7-AAD−, annexin V+/7-AAD+) (Jurkat cells): induced increased PS exposure and cell death

B2: VLX8 IgG4 PE (xi): chimeric (murine-human) anti-CD47 mAb, human IgG4 PE (antibody)
heavy: EVQLQQSGPELMKPGASVKISCKASGYSFTNYYIHWVNQSHGKSLEWIGYIDPLNGDTTYNQKFKGKATLTVDKSSSTAYMRLSSLTSADSAVYYCARGGKRAMDYWGQGTSVTVSSASTKGPSVFPLAPCSRSTSESTAALGCLVKDYFPEPVTVSWNSGALTSGVHTFPAVLQSSGLYSLSSVVTVPSSSLGTKTYTCNVDHKPSNTKVDKRV[letters of human IgG4 Fc with changes left out]
light: DIQMTQTTSSLSASLGDRVTISCRASQDISNYLNWYQQKPDGTVKLLIYYTSRLYSGVPSRFSGSGSGTDYSLTISNLEQEDIATYFCQQGNTLPWTFGGGTKLEIKRTVAAPSVFIFPPSDEQLKSGTASVVCLLNNFYPREAKVQWKVDNALQSGNSQESVTEQDSKDSTYSLSSTLTLSKADYEKHKVYACEVTHQGLSSPVTKSFNRGEC
hemagglutination of hRBCs (in words) [1]: caused visible hemagglutination
PS exposure and cell death (annexin V+, annexin V+/7-AAD−, annexin V+/7-AAD+) (Jurkat cells): induced increased PS exposure and cell death

B3: VLX4 IgG1 N297Q (xi): chimeric (murine-human) anti-CD47 mAb, human IgG1-N297Q (antibody)
heavy: EVQLQQSGPELVKPGASVKMSCKASGYTFTNYVIHWVKRRPGQGLEWIGYIYPYNDGILYNEKFKGKATVTSDKSSSTAYMDLSSLTSEDSAVYYCTRGGYYVPDYWGQGTTLTVSS[letters of human IgG1 constant region with changes left out]
light: DVLMTQTPLSLPVNLGDQASISCRSRQSIVHTNGNTYLGWFLQKPGQSPKLLIYKVSNRFSGVPDRFSGSGSGTDFTLTISRVEAEDLGVYYCFQGSHVPYTFGGGTKLEIKRTVAAPSVFIFPPSDEQLKSGTASVVCLLNNFYPREAKVQWKVDNALQSGNSQESVTEQDSKDSTYSLSSTLTLSKADYEKHKVYACEVTHQGLSSPVTKSFNRGEC
Kd [2]: 258 pM
Kd (human CD47 on hRBCs): 92 pM
